Source: the supplement of paper PMC9433436
± gives the standard deviation of the averaged measurements. Over roughly 4,100 sequences, “relative kcat/Km (krel) vs genomic leader AAAGAU” has its median near 1.7; the highest 2% begin near 6.5. The list shows a part of the results, in another mix than the full data.

Target: T1, E. coli RNase P holoenzyme (M1 P RNA + rnpA protein) (UniProt P0A7Y8)
T1 sequence: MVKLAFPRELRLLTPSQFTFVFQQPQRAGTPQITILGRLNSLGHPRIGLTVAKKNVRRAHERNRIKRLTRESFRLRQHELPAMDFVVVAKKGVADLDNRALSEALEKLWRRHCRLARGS
Test: relative kcat/Km (krel) vs genomic leader AAAGAU (relative (reference leader = 1)); higher = faster RNase P cleavage
Experimental: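 HTS-Kin: a pool of ptRNA-Met (21C construct) with all 4096 combinations of 5' leader nucleotides N(-6) to N(-1) was processed in vitro by E. coli RNase P (P RNA + rnpA/C5 protein) under multiple-turnover conditions at 37 C, pH 8, 17.5 mM MgCl2. Residual substrate was Illumina-sequenced at several fractions reacted, and relative kcat/Km (krel) was computed by internal competition kinetics, calibrated to the genomic leader (AAAGAU = 1). The listed hexamer is the varied N(-6)..N(-1) leader (DNA letters), and it sits between a fixed 5' stem-loop flank (GCAUGCACGAAAGUGCGUGCUAUGAA) and the mature tRNA-Met starting GGCUACGUAGCUCAGUUGG. Two technical replicates are averaged.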

[1] = fraction of substrate reacted: ~9-10% (9.79% repeat 1, 9.1% repeat 2)
[2] = fraction of substrate reacted: ~13-16% (15.68% repeat 1, 13.17% repeat 2)
[3] = fraction of substrate reacted: ~26-29% (28.66% repeat 1, 26.4% repeat 2)

Sequence	relative kcat/Km [1]	relative kcat/Km [2]	relative kcat/Km [3]
TTTGCT	0.76 ± 0.28	0.721 ± 0.56	0.983 ± 0.097
GGCATG	–	0.182 ± 0.053	1.488 ± 0.0024
AACATA	1.77 ± 0.44	2.46 ± 0.31	3.86 ± 1.5
ATTATG	–	0.849 ± 0.7	1.83 ± 0.24
TCCCAA	4.73 ± 3.1	4.63 ± 0.2	6.94 ± 2.3
AAGTCA	–	1.4 ± 1	2.02 ± 0.054
ACTTCC	2.52 ± 0.38	2.75 ± 0.79	2.86 ± 0.76
GCCCAA	2.42 ± 0.45	3.75 ± 1.7	5.72 ± 2.9
TCATCG	1.66 ± 1.1	0.943 ± 0.074	1.96 ± 0.15
GTCGCG	2.3 ± 2.2	1.77 ± 0.36	3.47 ± 0.87
TTAGAA	2.72 ± 1.5	2.61 ± 0.03	3.57 ± 1.4
ATCTTC	3.23 ± 1.1	4.36 ± 0.71	6.11 ± 2.2
TGCGTC	0.775 ± 0.3	0.777 ± 0.29	0.986 ± 0.22
TGTACG	1.02 ± 0.78	1.03 ± 0.19	2.29 ± 0.24
TTTGTT	1.16 ± 0.81	1.28 ± 0.98	1.3 ± 0.66
GGACCA	1.5 ± 0.81	0.745 ± 0.49	1.27 ± 0.29
AGAGAT	0.682 ± 0.45	1.15 ± 0.6	1.75 ± 0.4
CAATCA	1.18 ± 1.1	1.03 ± 0.38	1.76 ± 0.06
CTACGC	1.71 ± 0.27	2.28 ± 0.12	3.27 ± 1.2
CGAACA	–	0.874 ± 0.36	1.44 ± 0.065
AAGCGC	2.63 ± 2.3	1.13 ± 0.26	1.5 ± 0.58
CCACCA	2.19 ± 1.3	–	1.33 ± 0.1
GAAACC	0.896 ± 0.47	0.359 ± 0.18	1.14 ± 0.22
TGTGTG	–	–	0.494 ± 0.45
CTTTAC	4.38 ± 1.7	4.59 ± 1.3	6.2 ± 1.9
CGCCGC	2.62 ± 0.84	3.479 ± 0.016	4.99 ± 2

Sequence	relative kcat/Km [1]	relative kcat/Km [2]	relative kcat/Km [3]
ACGAGT	0.667 ± 0.11	0.638 ± 0.21	0.574 ± 0.3
CACATT	3.5 ± 1.3	4.74 ± 0.66	6.23 ± 2.3
AGCTGC	1.76 ± 0.18	2.22 ± 1	3.86 ± 1.9
TTGGTC	–	–	2.2 ± 2.2
CCACGC	2.46 ± 2	2.07 ± 0.11	2.44 ± 0.49
TTACCC	1.4 ± 1.3	1.78 ± 0.14	2.12 ± 0.43
CAGCCT	1.51 ± 0.2	1.59 ± 0.66	2.2 ± 1.4
GTTGTT	0.832 ± 0.53	0.86 ± 0.24	1.07 ± 0.92
GTGCTC	1.6 ± 0.97	–	0.741 ± 0.48
TCTAGT	–	–	2.43 ± 2.1
CTGCAG	1.07 ± 0.34	–	1.33 ± 0.64
CGATTT	2.8 ± 0.81	3.58 ± 1	4.49 ± 1.7
TTAAGA	1.95 ± 0.61	2.89 ± 0.47	3.88 ± 1.5
ACCAGC	2.88 ± 1.2	2.54 ± 1.1	3.89 ± 1.2
CCCTTC	3.11 ± 1.4	3.36 ± 0.74	4.51 ± 1.3
CTTGAA	2.09 ± 1	2.45 ± 0.55	3.29 ± 0.76
TATGCA	1.91 ± 1.2	1.67 ± 0.33	1.82 ± 0.36
GGTTGC	1.34 ± 0.2	1.35 ± 0.84	2.35 ± 1.3
CGCGCC	2.69 ± 1	3.36 ± 1.3	4.04 ± 1.4
ATAGCA	1.33 ± 0.72	1.62 ± 0.75	1.8 ± 0.085
TGTATG	–	–	1.93 ± 0.25
CTCCCA	2.2 ± 0.056	2.68 ± 0.55	3.68 ± 1.6
CCCTGA	3.36 ± 1.1	3.2 ± 1.4	5.02 ± 1.9
TCATTC	3.33 ± 1.4	4.37 ± 0.72	5.98 ± 2.3
AGTTTG	–	0.698 ± 0.046	2.25 ± 0.49
TACCAC	3.48 ± 1.4	4.03 ± 1.6	–

Sequence	relative kcat/Km [1]	relative kcat/Km [2]	relative kcat/Km [3]
CGGAAC	0.957 ± 0.39	1.52 ± 0.49	1.43 ± 0.079
TGAGGG	–	–	0.433 ± 0.41
CATCAC	3.71 ± 1.1	4.5 ± 0.64	6.27 ± 2.6
ACCTCG	–	–	1.87 ± 0.58
AGCGGT	–	–	0.859 ± 0.087
TGGCAC	–	–	0.862 ± 0.38
GCCACG	–	0.41 ± 0.19	1.695 ± 0.0087
CACAGC	3.88 ± 1.2	4.31 ± 1.1	5.98 ± 2.7
GCGGCG	1.23 ± 0.73	0.211 ± 0.19	–
ACTTTA	1.56 ± 0.72	1.89 ± 0.44	2.18 ± 0.5
CGATCG	–	–	1.06 ± 0.34
CTTGCC	2.21 ± 1.8	1.76 ± 0.013	2.16 ± 0.2
GTTCAG	–	1.43 ± 0.25	3.25 ± 0.87
CAGTCG	–	0.568 ± 0.043	1.45 ± 0.42
CGGCAA	–	1.14 ± 0.063	0.649 ± 0.17
CAGATT	1.72 ± 0.68	2 ± 0.1	2.79 ± 0.81
TCTGAT	1.67 ± 1.6	1.47 ± 0.22	1.59 ± 0.62
AAGTTG	–	0.103 ± 0.023	0.926 ± 0.52
CAGAAT	2.85 ± 1.1	3.13 ± 0.42	4.72 ± 2.1
ATAGAT	2.26 ± 0.79	2.32 ± 0.19	2.5 ± 1.2
GCAGTC	1.5 ± 0.23	1.29 ± 0.15	1.228 ± 0.0023
GCCGGC	–	0.571 ± 0.045	0.606 ± 0.54
GCGTTT	1.84 ± 0.65	1.71 ± 0.26	2.21 ± 0.94
GTTTCG	–	–	1.76 ± 0.37
ACTCCT	1.44 ± 0.49	1.32 ± 0.32	1.71 ± 0.23
ACGGAT	1.67 ± 1.6	–	1.93 ± 1.6

Sequence	relative kcat/Km [1]	relative kcat/Km [2]	relative kcat/Km [3]
CTCCAC	4.55 ± 1.9	5.88 ± 1.5	7.81 ± 3.1
TTATGG	0.845 ± 0.39	0.58 ± 0.55	1.11 ± 0.39
AGACTA	1.58 ± 0.15	1.67 ± 0.34	1.91 ± 0.59
AGGGCA	–	1.1 ± 0.99	1.14 ± 0.86
AGGAAA	0.893 ± 0.84	1.35 ± 0.19	1.54 ± 0.67
GAGGTG	–	–	0.61 ± 0.57
CCGATT	1.46 ± 0.5	–	1.99 ± 0.2
AACTTC	3.37 ± 1.2	3.49 ± 0.17	4.33 ± 1.5
TCCACC	3.85 ± 0.9	4.79 ± 0.6	6.05 ± 2.2
TTGAAG	1.84 ± 1.3	0.928 ± 0.21	2.99 ± 1
CATGAT	1.51 ± 0.71	1.21 ± 0.065	1.64 ± 0.31
CATACC	1.81 ± 0.39	1.67 ± 0.36	2.34 ± 1.2
TGATTT	3.14 ± 0.87	3.7 ± 0.56	4.76 ± 1.8
ATATGC	2.55 ± 1.6	2.85 ± 0.41	4.67 ± 1.9
GTTAAA	1.82 ± 0.016	2.94 ± 0.51	3.99 ± 1.8
CAGGAC	1.68 ± 0.75	2.31 ± 0.13	2.09 ± 0.77
CTGAGT	–	–	0.378 ± 0.19
TTGCTC	1.61 ± 0.29	1.94 ± 0.51	2.18 ± 0.68
ATTGCA	2.08 ± 0.54	1.61 ± 0.49	2.04 ± 0.69
GCTGAC	1.36 ± 0.04	1.79 ± 1	1.68 ± 0.061
TCACCA	1.66 ± 1.2	1.02 ± 0.38	1.97 ± 0.4
AGAGGG	–	–	0.989 ± 0.85
TGAGCA	2.05 ± 0.85	1.32 ± 0.54	1.63 ± 0.16
ATGTCC	2.28 ± 0.33	2.34 ± 0.077	2.9 ± 0.86
TGCGCC	1.73 ± 0.81	1.37 ± 0.65	2.36 ± 1.1
